Source: PubChem BioAssay AID686978 (National Center for Advancing Translational Sciences (NCATS), 2013)
Out of some 420,000 compounds screened, about 64,000 (15%) were called active. Inconclusive means that the source gave no clear call. Such entries were picked first, then a sample of the others. Calls come from the whole dose curve; as a rule, active = well fitted inhibition curve with a large enough effect; inconclusive = small, poorly fitted or top-dose-only effect; inactive = flat fitted curve, though single readings scatter. No potency is given beside an inconclusive call; the fits are too rough.

experiment: qHTS for Inhibitors of human tyrosyl-DNA phosphodiesterase 1 (TDP1): qHTS in cells in absence of CPT; details: DT40 Tdp1-/- hTDP1 cells, no CPT, ATP luminescence, 48 h; series mostly up to 46.2 µM; note: nearly all actives have a fitted effect of over 55% in size
Method in brief: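 Seeded 400 DT40-hTDP1 cells/well (vehicle DMSO, no 20 nM CPT); pinned compounds; ≥48 hr at 37 °C; CellTiter-Glo luminescence as viability measure.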
Potency is the fitted concentration of half-maximal effect; tags give direction and shape of the fitted curve.

Structure (SMILES)	Potency
COc1cc(CNn2c(C)n[nH]c2=S)cc(Br)c1OCc1ccc(F)cc1	inactive
COc1ccccc1N(C)S(=O)(=O)c1ccc(C(=O)OCC(=O)c2c[nH]c3ccccc23)cc1	inconclusive [inhibitor, partial curve, poor fit]
N#Cc1ccccc1S(=O)(=O)N1CCN(C(=O)Cc2n[nH]c(=O)c3ccccc23)CC1	inactive
COc1ccc(-c2ccc(-c3noc(-c4ccco4)n3)c(OC)n2)cc1	inconclusive [inhibitor, single point]
C=CCOC(=O)/C(=C\c1ccccc1)NC(=O)c1ccc(C)cc1	inconclusive [inhibitor, single point]
Cc1onc(-c2ccccc2)c1C(=O)N1CCN(c2ccccc2)CC1	inconclusive [inhibitor, single point]
CCS(=O)(=O)N1CCN(CC(=O)NC2CCCCC2)CC1	inconclusive [inhibitor, single point]
COc1ccc(-c2nc(CS(=O)CC(=O)NCc3ccco3)c(C)o2)cc1 (stereo not given)	inconclusive [inhibitor, partial curve, poor fit]
CCOc1ccc(NC(=O)N2CCN(c3nc4ccccc4s3)CC2)cc1	inconclusive [inhibitor, partial curve]
COc1ccc(CCNC(=O)COc2ccccc2[N+](=O)[O-])cc1OC	inactive
CCOCCn1c(CN2CCc3ccccc3C2)nc2c1c(=O)n(C)c(=O)n2C	active: 10.3 µM
Cc1cccc2sc(NNC(=O)c3ccc(S(=O)(=O)N4CC(C)CC(C)C4)cc3)nc12 (stereo not given)	active: 7.31 µM
O=C(O)CSCC(=O)N1CCc2c([nH]c3ccccc23)C1C(F)(F)F (stereo not given)	inactive
NC(CCc1ccccc1)c1csc(NC(=O)Nc2cccc(Cl)c2)n1 (stereo not given)	active: 23.1 µM
Cc1nc(-c2ccc(F)cc2)c(CC(=O)N(C)CC(=O)Nc2ccc(Br)cc2C)s1	inconclusive [inhibitor, single point]
CCOc1ccccc1N1CCN(C(=O)C2CSC3(C)CCC(=O)N23)CC1 (stereo not given)	inactive
O=C(NCc1ccc2c(c1)CCN2C(=O)c1ccc(F)cc1)c1cc2ccccc2[nH]1	inconclusive [inhibitor, single point]
Cc1ccc(-n2ncc(C(=O)NCc3ccccc3C)c2-n2cccc2)cc1	active: 23.1 µM
Nc1ccc2c(c1)[nH]c(=O)c1cc(N)ccc12	inconclusive [inhibitor, single point]
Cc1cc(C)cc(OCCNC(=O)c2ccc(Br)cc2)c1	inactive
